Paper PMC4336329 (PLoS ONE, 2015)
Out of some 310,000 compounds screened, about 14,000 (4.5%) showed an effect of 50% or more. The effect is printed as a negative number. Some of the results follow.

Target: human ether-à-go-go-related gene (hERG) potassium channel (human, UniProt Q12809)
Assay: primary screen, population patch clamp on CHO cells stably expressing hERG
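Also: peak tail current of the secondary pulse compared with the same well before compound.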

Sequence of human ether-à-go-go-related gene (hERG) potassium channel (Q12809 whole entry, looked up): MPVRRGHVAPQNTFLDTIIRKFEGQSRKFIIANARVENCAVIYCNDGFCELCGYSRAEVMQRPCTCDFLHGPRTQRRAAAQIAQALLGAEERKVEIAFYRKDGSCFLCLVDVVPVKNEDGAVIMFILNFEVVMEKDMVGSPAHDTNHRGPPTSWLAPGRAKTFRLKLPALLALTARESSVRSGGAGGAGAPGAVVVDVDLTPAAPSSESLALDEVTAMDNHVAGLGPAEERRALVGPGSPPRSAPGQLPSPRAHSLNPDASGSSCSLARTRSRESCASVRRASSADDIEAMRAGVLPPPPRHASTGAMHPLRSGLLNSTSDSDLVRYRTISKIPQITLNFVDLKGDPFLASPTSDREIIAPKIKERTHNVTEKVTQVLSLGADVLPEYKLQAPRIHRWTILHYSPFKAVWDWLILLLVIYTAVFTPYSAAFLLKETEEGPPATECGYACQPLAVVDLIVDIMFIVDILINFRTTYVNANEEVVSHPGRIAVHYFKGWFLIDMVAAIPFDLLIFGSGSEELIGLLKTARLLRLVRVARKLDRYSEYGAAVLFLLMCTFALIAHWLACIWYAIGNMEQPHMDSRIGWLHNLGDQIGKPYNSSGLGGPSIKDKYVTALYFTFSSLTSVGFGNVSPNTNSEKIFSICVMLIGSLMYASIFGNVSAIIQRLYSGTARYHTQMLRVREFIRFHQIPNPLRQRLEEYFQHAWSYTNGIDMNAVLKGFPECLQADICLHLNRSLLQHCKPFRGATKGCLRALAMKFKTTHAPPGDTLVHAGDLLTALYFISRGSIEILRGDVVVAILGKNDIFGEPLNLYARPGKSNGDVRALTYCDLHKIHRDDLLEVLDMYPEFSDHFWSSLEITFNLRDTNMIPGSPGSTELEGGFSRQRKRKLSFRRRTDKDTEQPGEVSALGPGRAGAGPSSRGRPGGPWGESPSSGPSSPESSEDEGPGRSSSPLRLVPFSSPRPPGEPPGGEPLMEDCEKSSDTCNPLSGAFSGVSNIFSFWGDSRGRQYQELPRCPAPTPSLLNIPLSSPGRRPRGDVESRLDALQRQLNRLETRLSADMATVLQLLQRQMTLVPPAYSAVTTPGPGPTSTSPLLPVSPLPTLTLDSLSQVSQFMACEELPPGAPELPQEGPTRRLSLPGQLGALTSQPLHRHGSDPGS

| SMILES | hERG current change (%, negative = inhibition) at 10uM |
| --- | --- |
| CC(=O)O[C@@]12CO[C@@H]1C[C@H](O)[C@@]1(C)C(=O)[C@H](O)C3=C(C)[C@@H](O)C[C@@](O)([C@@H](OC(=O)c4ccccc4)C12)C3(C)C (stereo partly drawn) | -4.87% |
| CC(C)C[C@H](NC(=O)OC(C)(C)C)c1nnc(SCc2cccc(F)c2)o1 | -21.9% |
| Cc1cc(=O)[nH]c(Nc2cccc(Cl)c2C)n1 | 6.46% |
| CCn1c(CN2CCN(C(=O)c3ccco3)CC2)nc2c1c(=O)n(C)c(=O)n2C | -16.4% |
| O=C(Nc1ccccn1)c1ccc(S(=O)(=O)N2CCCCCC2)cc1 | -7.4% |
| Cc1cc2cc(C(c3nnnn3Cc3ccco3)N3CCc4ccccc4C3)c(=O)[nH]c2cc1C (stereo not drawn) | 1.81% |
| COc1ccc(N2CCN(C(=O)COC(=O)c3oc4ccc(OC)cc4c3C)CC2)cc1 | -13.5% |
| CC(C)(C)NC(=O)NC(=O)COC(=O)CCC1CCCCC1 | 13.1% |
| CCCC(C)NCC(=O)Nc1ccccc1-c1ccccc1.O=C(O)C(=O)O (stereo not drawn) | -21.5% |
| O=C(Nc1cccnc1)c1ccccc1-c1ccccc1 | 19.7% |
| O=C(NCc1ccc(Cl)cc1)c1cnn2ccccc12 | -9.93% |
| O=C(Nc1ccc2c(c1)OCCO2)c1ccc(S(=O)(=O)N2CCCCC2)cc1 | 4.38% |
| CCOc1ccc(NS(=O)(=O)c2ccc3c(c2)N(C(C)=O)CCS3)cc1 | 1.24% |
| COCCCn1c(C(=O)NCCN2CCOCC2)cc2c(=O)n3cccc(C)c3nc21 | -9.21% |
| O=C(Nc1nnc(-c2ccccc2)s1)c1ccc(F)cc1 | 12.8% |
| Cc1c(C(=O)Nc2ccccc2)sc2nc3n(c(=O)c12)CCCCC3 | 7.75% |
| NC(=O)NOCc1ccc(Cl)cc1Cl | 6.25% |
| CCC(CC)c1nnc(NC(=O)Cc2cccs2)s1 | -0.367% |
| Cc1ccc(NC(=S)NC2CCSc3ccccc32)cc1C (stereo not drawn) | 8.04% |

| SMILES | hERG current change (%, negative = inhibition) at 10uM |
| --- | --- |
| O=C(CN(Cc1ccc(F)cc1)C(=O)CCC(=O)Nc1nccs1)NCc1ccc(F)cc1 | -50.5% |
| CCOC(=O)C1CCN(S(=O)(=O)c2cn(C)cn2)CC1 | 18.7% |
| O=[N+]([O-])c1cc([N+](=O)[O-])c(Oc2c(F)cc(F)cc2F)cc1NN1CCCCC1 | 6.2% |
| Cc1ccc(C(c2nnnn2Cc2ccccc2)N2CCN(Cc3ccccc3)CC2)cc1 (stereo not drawn) | -79% |
| Cn1cc(Cl)c(-c2n[nH]c(=S)n2-c2ccccc2)n1 | 21.1% |
| COc1cc(/C=C/C(=O)c2ccc(O)cc2)ccc1OCC#N | -32.6% |
| O=C(NC1(C(=O)NC2CCCCC2)CCCCC1)c1ccccn1 | 2.56% |
| Cc1ncc(CSc2nnnn2-c2ccccc2)c(N)n1 | 1.69% |
| CCOC(=O)c1cc(OC(=O)c2ccccc2Br)n(-c2ccccc2)n1 | -19.4% |
| CN(C)c1nc(NCc2ccccc2)nc(SCC(=O)Nc2ccccc2)n1 | 9.98% |
| CC1=Nc2cc(C(=O)NCCCOC(C)C)ccc2Sc2ccc(C)cc21 | -4.97% |
| Cc1c(C(=O)Nc2cc(F)cc(F)c2)cnn1-c1ccccc1 | 8.28% |
| O=C(Nc1nc2ccccc2s1)c1ccc(Cl)s1 | 1.46% |
| Cc1nc(SCC(=O)Nc2ccc3c(c2)OCCO3)nc(C)c1C | 22% |
| CCC(CC)N=C1NS(=O)(=O)c2cc([N+](=O)[O-])ccc21 | 2.05% |
| COc1cccc(Nc2ccc(C(=O)O)cc2[N+](=O)[O-])c1 | 18.2% |
| CCOC(=O)N1CCN(CC(=O)c2ccc(O)cc2O)CC1 | 11.9% |
| COc1cccc(CN2CCN(C(=O)c3ccc(-c4ccccc4)cc3)CC2)c1 | -38.3% |
| CCOC(=O)Cn1cc(C(=O)C(C)(C)C)c2ccccc21 | 4.24% |

| SMILES | hERG current change (%, negative = inhibition) at 10uM |
| --- | --- |
| COc1ccccc1N1C(=O)CC(N(O)c2ccccc2)C1=O (stereo not drawn) | 23.6% |
| O=C(NCC(=O)N1CCCCC1)c1ccc(Br)o1 | 10.2% |
| Cc1n[nH]c(C)c1S(=O)(=O)N1CCCC(C(=O)NCc2cccs2)C1 (stereo not drawn) | -4.66% |
| COc1cccc(C(=O)COc2ccccc2-c2ccccc2)c1 | 2.6% |
| O=C1Nc2cc(C(=O)NCCCN3CCCC3)ccc2S/C1=C/c1ccccc1F | -69.5% |
| c1cc(-n2cnnn2)ccc1NC1=NCCC1 | 9.28% |
| COc1ccc(NC(=O)Cn2nc3n(c2=S)CCC3)cc1 | 9.8% |
| COc1ccc(NC(=O)C2CCCN(c3c4c(nc5ncnn35)CCC4)C2)cc1OC (stereo not drawn) | -11.7% |
| Nc1c(-c2ccc(Cl)cc2)cnc2ncnn12 | -8.92% |
| Cc1cc(C)cc(NC(=O)c2cc3c(=O)n4ccccc4nc3s2)c1 | -4.98% |
| COc1cccc(-c2csc(N3CCN(C(=S)Nc4cccc(Cl)c4)CC3)n2)c1 | 14.6% |
| COc1ccc(CC(=O)NNS(=O)(=O)c2ccccc2)cc1OC | 29.9% |
| Cc1cccc(-c2cc(C(=O)Nc3c(C)n(C)n(-c4ccccc4)c3=O)c3ccccc3n2)c1 | -21.9% |
| Cc1c(NC(=O)c2coc(=O)c(Br)c2)c(=O)n(-c2ccccc2)n1C | -1.63% |
| O=C(O)c1ccc(Sc2nnc3ccccn23)c([N+](=O)[O-])c1 | 34.1% |
| O=C(Cc1ccc(Br)cc1)N(Cc1ccccc1)c1ccccn1 | -40.3% |
| COc1ccccc1OCCNC(=O)c1ccc(C)o1 | 1.12% |
| C(=Nc1ccc(Nc2ccccc2)cc1)c1ccc2ccccc2c1 | 13.2% |
| COc1ccc(CCNC(=O)c2oc3ccc(OC)cc3c2C)cc1 | 6.73% |
